Positions count from the first letter of the chain named. The list shows a part of the results.

T1: RBFOX1 RRM (Homo sapiens, UniProt Q9NWB1 109-208)
T1 sequence: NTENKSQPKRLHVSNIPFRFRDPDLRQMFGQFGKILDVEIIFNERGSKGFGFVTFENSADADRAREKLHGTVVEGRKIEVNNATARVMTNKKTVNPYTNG

B1: UCCUUGU (DNA:RNA)
RNA: GGGAGACCGGAAUUCAGAUUGUCCUCCUUGUUUAAAUCCCGUCGUAGCCACCA
DNA 1: CAATCTGAATTCCGGTCTCCC
DNA 2: TGGTGGCTACGACGGGATT
B2: ACGACCG (DNA:RNA)
RNA: B1 RNA with U25A, C27G, U28A, U29C, G30C, U31G
DNA 1: CAATCTGAATTCCGGTCTCCC
DNA 2: TGGTGGCTACGACGGGATT
B3: AUAAUAU (DNA:RNA)
RNA: B1 RNA with U25A, C26U, C27A, U28A, G30A
DNA 1: CAATCTGAATTCCGGTCTCCC
DNA 2: TGGTGGCTACGACGGGATT
B4: GGGAAAC (DNA:RNA)
RNA: GGGAGACCGGAAUUCAGAUUGUCCGGGAAACUUAAAUCCCGUCGUAGCCACCA
DNA 1: CAATCTGAATTCCGGTCTCCC
DNA 2: TGGTGGCTACGACGGGATT
B5: GAGAUAU (DNA:RNA)
RNA: B4 RNA with G26A, A29U, C31U
DNA 1: CAATCTGAATTCCGGTCTCCC
DNA 2: TGGTGGCTACGACGGGATT
B6: CUCUCGG (DNA:RNA)
RNA: B1 RNA with U25C, C26U, U29C, U31G
DNA 1: CAATCTGAATTCCGGTCTCCC
DNA 2: TGGTGGCTACGACGGGATT
B7: GCAUAGC (DNA:RNA)
RNA: B4 RNA with G26C, G27A, A28U, A30G
DNA 1: CAATCTGAATTCCGGTCTCCC
DNA 2: TGGTGGCTACGACGGGATT
B8: GAGCUAG (DNA:RNA)
RNA: B4 RNA with G26A, A28C, A29U, C31G
DNA 1: CAATCTGAATTCCGGTCTCCC
DNA 2: TGGTGGCTACGACGGGATT
B9: CUUUUUG (DNA:RNA)
RNA: B1 RNA with U25C, C26U, C27U, G30U, U31G
DNA 1: CAATCTGAATTCCGGTCTCCC
DNA 2: TGGTGGCTACGACGGGATT
B10: CAUAAGA (DNA:RNA)
RNA: B4 RNA with G25C, G26A, G27U, A30G, C31A
DNA 1: CAATCTGAATTCCGGTCTCCC
DNA 2: TGGTGGCTACGACGGGATT
B11: CCUACAG (DNA:RNA)
RNA: B4 RNA with G25C, G26C, G27U, A29C, C31G
DNA 1: CAATCTGAATTCCGGTCTCCC
DNA 2: TGGTGGCTACGACGGGATT
B12: AAAUGCU (DNA:RNA)
RNA: B1 RNA with U25A, C26A, C27A, U29G, G30C
DNA 1: CAATCTGAATTCCGGTCTCCC
DNA 2: TGGTGGCTACGACGGGATT
B13: GCAGUAG (DNA:RNA)
RNA: B4 RNA with G26C, G27A, A28G, A29U, C31G
DNA 1: CAATCTGAATTCCGGTCTCCC
DNA 2: TGGTGGCTACGACGGGATT
B14: ACUAGUA (DNA:RNA)
RNA: B4 RNA with G25A, G26C, G27U, A29G, A30U, C31A
DNA 1: CAATCTGAATTCCGGTCTCCC
DNA 2: TGGTGGCTACGACGGGATT
B15: UUACCUA (DNA:RNA)
RNA: B1 RNA with C26U, C27A, U28C, U29C, G30U, U31A
DNA 1: CAATCTGAATTCCGGTCTCCC
DNA 2: TGGTGGCTACGACGGGATT
B16: GGAAACC (DNA:RNA)
RNA: B4 RNA with G27A, A30C
DNA 1: CAATCTGAATTCCGGTCTCCC
DNA 2: TGGTGGCTACGACGGGATT
B17: AGGUAGG (DNA:RNA)
RNA: B4 RNA with G25A, A28U, A30G, C31G
DNA 1: CAATCTGAATTCCGGTCTCCC
DNA 2: TGGTGGCTACGACGGGATT
B18: CGGGCUC (DNA:RNA)
RNA: B4 RNA with G25C, A28G, A29C, A30U
DNA 1: CAATCTGAATTCCGGTCTCCC
DNA 2: TGGTGGCTACGACGGGATT
B19: UGAGGGC (DNA:RNA)
RNA: B4 RNA with G25U, G27A, A28G, A29G, A30G
DNA 1: CAATCTGAATTCCGGTCTCCC
DNA 2: TGGTGGCTACGACGGGATT
B20: UCAGCAG (DNA:RNA)
RNA: B1 RNA with C27A, U28G, U29C, G30A, U31G
DNA 1: CAATCTGAATTCCGGTCTCCC
DNA 2: TGGTGGCTACGACGGGATT
B21: GACUGUA (DNA:RNA)
RNA: B1 RNA with U25G, C26A, U29G, G30U, U31A
DNA 1: CAATCTGAATTCCGGTCTCCC
DNA 2: TGGTGGCTACGACGGGATT
B22: GAUCCAA (DNA:RNA)
RNA: B4 RNA with G26A, G27U, A28C, A29C, C31A
DNA 1: CAATCTGAATTCCGGTCTCCC
DNA 2: TGGTGGCTACGACGGGATT
B23: ACCGCAC (DNA:RNA)
RNA: B4 RNA with G25A, G26C, G27C, A28G, A29C
DNA 1: CAATCTGAATTCCGGTCTCCC
DNA 2: TGGTGGCTACGACGGGATT
B24: UUAAAGU (DNA:RNA)
RNA: B1 RNA with C26U, C27A, U28A, U29A
DNA 1: CAATCTGAATTCCGGTCTCCC
DNA 2: TGGTGGCTACGACGGGATT
B25: GUGUGAU (DNA:RNA)
RNA: B4 RNA with G26U, A28U, A29G, C31U
DNA 1: CAATCTGAATTCCGGTCTCCC
DNA 2: TGGTGGCTACGACGGGATT
B26: CUUGUGU (DNA:RNA)
RNA: B1 RNA with U25C, C26U, C27U, U28G
DNA 1: CAATCTGAATTCCGGTCTCCC
DNA 2: TGGTGGCTACGACGGGATT
B27: GCCGCCA (DNA:RNA)
RNA: B1 RNA with U25G, U28G, U29C, G30C, U31A
DNA 1: CAATCTGAATTCCGGTCTCCC
DNA 2: TGGTGGCTACGACGGGATT
B28: UGCACCC (DNA:RNA)
RNA: B4 RNA with G25U, G27C, A29C, A30C
DNA 1: CAATCTGAATTCCGGTCTCCC
DNA 2: TGGTGGCTACGACGGGATT
B29: GGGGGCG (DNA:RNA)
RNA: B4 RNA with A28G, A29G, A30C, C31G
DNA 1: CAATCTGAATTCCGGTCTCCC
DNA 2: TGGTGGCTACGACGGGATT
B30: GACACCU (DNA:RNA)
RNA: B4 RNA with G26A, G27C, A29C, A30C, C31U
DNA 1: CAATCTGAATTCCGGTCTCCC
DNA 2: TGGTGGCTACGACGGGATT
B31: CAGCUUC (DNA:RNA)
RNA: B4 RNA with G25C, G26A, A28C, A29U, A30U
DNA 1: CAATCTGAATTCCGGTCTCCC
DNA 2: TGGTGGCTACGACGGGATT

For this experiment, the target named is T1, RBFOX1 RRM. Nature of the experiment: EMSA; HiTS-Eq, 1 nM pool, 10 min; buffer printed only for the single-RNA assays: 10 mM Tris pH 7.5, 150 mM NaCl, 3.4 mM EDTA, 0.001% NP-40, 30 C. The conditions noted are these: tags: His6 N-terminal (pET28a); label: 5' 32P. The essentials: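 Purified RbFox RRM (wild type or mutant) was equilibrated for 10 min in 50 µL with 1 nM of a 5′-radiolabelled pool of RNA with 7 randomized nucleotides, its flanks annealed to DNA oligonucleotides, across increasing protein concentrations. Free RNA was separated by 8% native PAGE, excised, reverse-transcribed, PCR-barcoded and sequenced on an Illumina HiSeq 2500. Relative association constants came from read-count changes of each variant against the control reaction, normalised to the cognate motif.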
(A gel shift assay detects complexes by their altered migration in electrophoresis.)
In the case of B1, the binding signal is 0.0095 KA relative to UGCAUGU. As for B2, the figure is 0.0087 KA relative to UGCAUGU; as for B3, 0.00063 KA relative to UGCAUGU; as for B4, 0.0277 KA relative to UGCAUGU. With B5 the figure was 0.00642 KA relative to UGCAUGU; with B6, 0.0101 KA relative to UGCAUGU; with B7, 0.0095 KA relative to UGCAUGU. B8: the binding signal was 0.0261 KA relative to UGCAUGU. As for B9, the figure is 0.0263 KA relative to UGCAUGU; as for B10, 0.00403 KA relative to UGCAUGU; as for B11, 0.00897 KA relative to UGCAUGU. For the molecule B12, the binding signal was 0.00516 KA relative to UGCAUGU. As for B13, the figure is 0.00887 KA relative to UGCAUGU; as for B14, 0.00584 KA relative to UGCAUGU. As for B15, the figure is 0.0018 KA relative to UGCAUGU; as for B16, 0.00863 KA relative to UGCAUGU. For the molecule B17, the binding signal was 0.015 KA relative to UGCAUGU.

With B18, the binding signal was 0.0209 KA relative to UGCAUGU. As for B19, the figure is 0.00686 KA relative to UGCAUGU. With B20 the figure was 0.00796 KA relative to UGCAUGU; with B21, 0.0131 KA relative to UGCAUGU. As for B22, the figure is 0.00466 KA relative to UGCAUGU; as for B23, 0.00343 KA relative to UGCAUGU. Consider B24, for which the binding signal is 0.00914 KA relative to UGCAUGU.

Take B25: the binding signal is 0.0151 KA relative to UGCAUGU.

Take B26: the binding signal was 0.0213 KA relative to UGCAUGU. With B27 the figure was 0.00445 KA relative to UGCAUGU; with B28, 0.0142 KA relative to UGCAUGU. As to B29, the binding signal is 0.022 KA relative to UGCAUGU.

With B30, the binding signal was 0.0027 KA relative to UGCAUGU. With B31, the binding signal is 0.0104 KA relative to UGCAUGU.

(Values after PMC9911399, “Two distinct binding modes provide the RNA-binding protein RbFox with extraordinary sequence specificity”.)
